About 120 (0.25%) of roughly 48,000 compounds were called active. Not shown: some 4% with an inconclusive outcome. Calls follow the shape of the dose curve; as a rule, active = well fitted activation curve with a large enough effect; inconclusive = small, poorly fitted or top-dose-only effect, or another doubt; inactive = no such curve, though single readings can be large or run the other way. The list shows a part of the results.

This test is described as follows: Primary qHTS for Identification of Small Molecule Activators of Huntingtin-Antisense Promoter Activity. Also: nearly all actives have a fitted effect of over 55% in size. As to conditions: HEK293 HTT-AS promoter firefly luciferase reporter (activity 0% = vehicle and -100% = no light), 24 h; series mostly up to 57.5 µM; activity change, positive = activation: at the top concentration. The gist of the method: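 Quantitative HTS used concentration series of up to 57.5 uM final on HEK293 luciferase reporter cells, 24 h at 37 degrees C. Readout was Dual-Glo firefly luminescence.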
Take `COc1ccc(NCc2nc3ccccc3n2CCOc2ccccc2C)cc1`: the “activity change, positive = activation” value was inactive: 3.21%. As to `CCSC1=NC2(CCN(C(=O)NC3CCCCC3)CC2)N=C1c1ccc(C)cc1`, the “activity change, positive = activation” value is inactive: -9.18%.

Turning to `Cc1cc(S(=O)(=O)Nc2cc3c(cc2C)n(C)c(=O)c(=O)n3C)ccc1F`, the “activity change, positive = activation” value was inactive: -22.2%. With `Cc1ccccc1NC(=O)CSc1ncc2c(n1)-c1ccccc1N(C)S2(=O)=O` the figure was inactive: -9.55%. With `Cc1cn2c(=O)cc(COC(=O)c3cccc(NC(=O)C(C)Oc4ccccc4)c3)nc2s1` (stereo unspecified) the figure was inactive: -29.8%; with `Cc1cc(C)c2c(n1)nn1c(C)c(CCC(=O)Nc3ccc(C)c(Cl)c3)c(C)nc21`, inactive: -9.11%; with `CCOc1ccccc1NC(=O)c1c(NC(=O)C(C)Oc2cccc(Cl)c2)sc2c1CCCCC2` (stereo unspecified), inactive: -19.7%.

For `CCn1c(Oc2ccc(F)cc2F)nc2c1c(=O)n(C)c(=O)n2C`, the “activity change, positive = activation” value is inactive: -28.8%. With `CCOc1ccc(CC(=O)Nc2c(C(=O)c3ccc(Cl)cc3)oc3ccccc23)cc1OCC` the figure was inactive: -9.64%; with `CC1=C(C(=O)Nc2ccc(Cl)cc2)C(c2cccs2)n2nc(SCc3cccc(Cl)c3)nc2N1` (stereo unspecified), inactive: 0.493%. With `Cc1cccc(S(=O)(=O)c2cn(Cc3ccccc3)c3cc(N4CCC(C)CC4)c(F)cc3c2=O)c1` the figure was inactive: -11.2%; with `CCC1=Nc2cc(C(=O)NCCc3ccccc3)ccc2Sc2ccc(Cl)cc21`, inactive: -18.9%. With `CCc1cc2c(cc3c(=O)n(CC(=O)NCc4cccc(Cl)c4)nc(CC)n32)s1` the figure was inactive: 1.04%. `COc1ccc(Nc2cc(C(=O)NCCCN(C)Cc3ccccc3)c3ccccc3n2)cc1OC`: the “activity change, positive = activation” value is inactive: -11.6%. With `COc1ccc(-n2nc3cc(C)c(NC(=O)COc4cccc(C)c4)cc3n2)cc1` the figure was inactive: 2.55%; with `COc1cccc(CNC(=O)C(=O)NCC(c2cccs2)S(=O)(=O)c2cccs2)c1` (stereo unspecified), inactive: -23.1%; with `COc1cccc(OCc2nc3ccccc3n2Cc2ccccc2)c1`, inactive: 4.36%. For `CCC(CC)C(=O)Nc1cccc(-c2nc3cccnc3s2)c1` the value was inactive: 1.64%.

Consider `COc1cccc(COC(=O)c2nn(-c3ccccc3)nc2N)c1`, for which the “activity change, positive = activation” value was inactive: -0.804%. Take `CNC(=O)C1CCC(Cn2c(=O)c3sccc3n(Cc3ccccc3)c2=O)CC1` (stereo unspecified): the “activity change, positive = activation” value was inactive: -6.08%.

Take `Cc1csc2nc(COC(=O)c3ccccc3NC(=O)c3ccccc3Cl)cc(=O)n12`: the “activity change, positive = activation” value was inactive: -41.6%. For `COc1ccccc1CCNC(=O)c1cc2c(=O)n3cccc(C)c3nc2n1C` the value was inactive: -3.1%; for `COc1cc(OC)c(NC(=O)C(C)n2c(=O)cc(-c3ccccc3)c3c(C)nn(C)c32)cc1Cl` (stereo unspecified), inactive: -34.5%; for `CCOc1ccc(-c2nc(Cn3c(=O)cc(-c4ccccc4)c4c(C)nn(C)c43)c(C)o2)cc1OC`, inactive: -5.48%. With `CCc1ccc(NC(=O)N2CC=C(c3c[nH]c4ccccc34)CC2)cc1` the figure was inactive: -25.4%; with `COc1ccc(C(=O)NCC(c2cccnc2)N2CCc3ccccc3C2)cc1` (stereo unspecified), inactive: -28.6%; with `CCN(CC)c1ccc(NC(=O)CCS(=O)(=O)c2cccc3nsnc23)c(C)c1`, inactive: -7.46%.

In the case of `CCOC(=O)c1[nH]c(C)c(CCC(=O)Nc2cc(Cl)ccc2C)c1C`, the “activity change, positive = activation” value was inactive: -24%. With `COc1ccc(CCNc2ncnc3c2cnn3-c2cccc(Cl)c2)cc1` the figure was inactive: -25.4%. For `Cc1cc(C)n(CCc2nc3c4ccccc4nc(N4CCN(c5ccccc5F)CC4)n3n2)n1` the value was inactive: -18.9%; for `C#CC(C)(CC)NC(=O)c1cnn2c(C(F)F)cc(-c3ccccc3OC)nc12` (stereo unspecified), inactive: -0.427%. As to `CC(C)CCNC(=O)c1ccc2c(c1)NC(=O)C(CS(=O)(=O)Cc1cccc(Br)c1)N2` (stereo unspecified), the “activity change, positive = activation” value is inactive: -2.45%. With `Cc1ccc(Cn2ccnc2SCC(=O)NCc2ccc(F)cc2)cc1` the figure was inactive: -4.39%.

In the case of `COc1ccc(NC(=O)CSc2nc3ccccc3n2CC(=O)N(C)c2ccc(F)cc2)cc1`, the “activity change, positive = activation” value is inactive: 0%. With `COc1ccc(OCCCCn2c(C3CC(=O)N(c4cccc(Cl)c4)C3)nc3ccccc32)cc1` (stereo unspecified), the “activity change, positive = activation” value was inactive: -45.1%. In the case of `CN1C(=O)C2(SCC(=O)N2c2cccc(C(F)(F)F)c2)c2ccccc21` (stereo unspecified), the “activity change, positive = activation” value was inactive: -12.1%. With `CCOC(=O)C1CCC(CN(Cc2ccc(Cl)cc2)S(=O)(=O)c2ccc(Br)cc2)CC1` (stereo unspecified) the figure was inactive: -7.02%; with `COc1ccc(-c2onc(C)c2C)cc1S(=O)(=O)N(C)Cc1ccco1`, inactive: -18.4%. With `CC(=O)Oc1cccc(O)c1` the figure was inactive: -1.76%.

As for `CCOC(=O)C1CCN(CC(=O)N2CCCc3c2c(=O)oc2ccc(OCc4ccccc4)cc32)CC1`, the “activity change, positive = activation” value is inactive: 10.9%. With `CCCN1CCN(CCNC(=O)Nc2ccc(OC)c(OC)c2)CC1` the figure was inactive: -3.54%; with `CCOc1ccc(NC(=O)c2cn(C)c(=O)c3cc(OC)c(OC)cc23)cc1`, inactive: 1.16%. In the case of `COc1ccc(NC(=O)c2sc3nc(C)c(C(=O)Nc4ccc(C)cc4C)c(-c4ccc(C)o4)c3c2N)cc1`, the “activity change, positive = activation” value was inactive: 13.9%. For the molecule `Cc1ccc(Nc2nc(C)cc(C)n2)c(C(=O)O)c1`, the “activity change, positive = activation” value is inactive: -12.4%. As to `CCc1ccc(NC(=O)CN2C(=O)C3(SCC(=O)N3c3ccccc3)c3ccccc32)cc1` (stereo unspecified), the “activity change, positive = activation” value was inactive: -28.9%.

In the case of `Cc1ccc(Cl)cc1NC(=O)CSC1=Nc2ccccc2C2=NC(Cc3ccccc3)C(=O)N12` (stereo unspecified), the “activity change, positive = activation” value is inactive: -35.5%. Regarding `CC1(C)CC(=O)c2cc(-c3nc(-c4ccc(Cl)cc4)cs3)c(=O)n(-c3ccc(Cl)cc3)c2C1`, the “activity change, positive = activation” value was inactive: -15.1%.

`COc1ccc(NC(=O)Cn2nc(-c3ccncc3)ccc2=O)cc1Cl`: the “activity change, positive = activation” value was inactive: -1.05%. With `CCCCN(CCCC)CC(O)Cn1cc(/C=C/C(=O)c2ccccc2)c2ccccc21` (stereo unspecified), the “activity change, positive = activation” value is inactive: -38.2%. With `O=c1c(=O)n(-c2cccc(Cl)c2)ccn1Cc1cccc(F)c1` the figure was inactive: -33.5%. `CC(=O)N1CCc2cc(S(=O)(=O)NC(CC(C)C)C(=O)NCc3ccccc3)ccc21` (stereo unspecified): the “activity change, positive = activation” value was inactive: 17.2%. With `COc1cccc2c1cc1c(=O)n(CC(=O)NC3CC3)nc(C)n12` the figure was inactive: -6.82%; with `COc1cccc(-c2nc(CSCC(=O)NCCc3ccc(Cl)cc3)c(C)o2)c1`, inactive: -51.5%; with `Cc1nnc(SCC(=O)Nc2ccc(Br)cc2)[nH]c1=O`, inactive: -28.8%.

Consider `CCCCC(CC)CNC(=O)CCCn1c(=O)[nH]c2ccsc2c1=O` (stereo unspecified), for which the “activity change, positive = activation” value is inactive: -19.5%. For `COc1ccc(C)cc1Nc1nc(-c2cccc(Cl)c2)c2c(n1)-c1ccccc1OC2` the value was inactive: -11.8%. As to `COc1cc(-c2nc(Cn3nnc(C(=O)Nc4cc(C)cc(C)c4)c3C)c(C)o2)cc(OC)c1OC`, the “activity change, positive = activation” value is inactive: -34.8%. For `Cc1ccc(-c2nc(N3CCN(c4ccccc4Cl)CC3)c3ccccc3n2)cc1`, the “activity change, positive = activation” value was inactive: -4.33%.

As for `CCOc1ccc(NC(=O)C(NC(=O)C2CCC(C)CC2)C(C)C)cc1` (stereo unspecified), the “activity change, positive = activation” value was inactive: -1.73%. As for `CCOC(=O)c1cc(-c2ccccc2)n(CC(=O)N(C)c2ccc(OC)cc2)c1C`, the “activity change, positive = activation” value was inactive: -23.5%. As for `C[C@](Cc1c[nH]c2ccccc12)(NC(=O)OC1C2CC3CC(C2)CC1C3)C(=O)NC[C@H](NC(=O)CCC(=O)O)c1ccccc1` (stereo partly specified), the “activity change, positive = activation” value is inactive: -12.4%.

The values above are taken from PubChem BioAssay AID1508624 (National Center for Advancing Translational Sciences (NCATS), 2021).
